In all, about 410,000 compounds went through this assay and about 5,000 (1.2%) were called active. Inconclusive results, whose numbers are uncertain, are shown with a selection of clear calls. Calls come from the whole dose curve; as a rule, active = well fitted inhibition curve with a large enough effect; inconclusive = small, poorly fitted or top-dose-only effect; inactive = no such curve, though single readings can be large or run the other way. Potencies of inconclusive entries are doubtful fits and often do not repeat.
Test: qHTS for Inhibitors of TGF-b; note: nearly all actives have a fitted effect of over 65% in size
Conditions: HepG2 CAGA-GFP TGF-b/SMAD3 reporter, GFP fluorescence, 18 h, TGF-beta stimulated, 500 pg/mL final; series mostly up to 46.1 µM; activity, negative = inhibition: at the top concentration
Procedure, shortened: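 Cell-based qHTS in HEPG2 carrying a CAGA-GFP Smad reporter; compounds added before 500 pg/mL final TGF-beta, 18 h incubation at 37 degrees C, GFP fluorescence quantified per cell by imaging cytometry.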
% is set by controls: 0 for no effect and ±100 for the full control effect; potency is the fitted concentration of half-maximal effect; tags give direction and shape of the fitted curve.

Question: Which Potency does the source give for CC(C)(C)C(=O)OCc1cc(=O)n2nc(C3CCCCC3)sc2n1 here?
Answer: inconclusive: 35.5 µM [inhibitor, single point]

Question: With Cc1ccccc1N1C(N)=NC(N)=NC1(C)C as the compound, how does the “activity, negative = inhibition” value read?
Answer: inactive: 8.02%

Question: For O=C(CNc1cccc(S(=O)(=O)N2CCCCC2)c1)Nc1cccc(F)c1, which Potency is on record?
Answer: inconclusive: 11.2 µM [inhibitor, single point]

Question: With Cc1nc2c(c(C)nn2-c2ccccc2)c(C)c1CCC(=O)Nc1ccc(CN2CCCC2)cc1 as the compound, how does the Potency read?
Answer: inconclusive: 35.5 µM [inhibitor, single point]

Question: Which Potency does the source give for c1ccc2c(C[C@@H]3CNCCN3CC3CCCCC3)cccc2c1 here?
Answer: inconclusive: 35.5 µM [inhibitor, single point]

Question: Which Potency does the source give for CCS(=O)(=O)c1ncc(Cl)c(C(=O)N(Cc2ccccc2)Cc2ccco2)n1 here?
Answer: inconclusive: 2.51 µM [inhibitor, full curve, poor fit]

Question: For COc1ccccc1-c1noc(-c2ccc(NCCc3ccccc3)c([N+](=O)[O-])c2)n1, which “activity, negative = inhibition” value is on record?
Answer: inactive: -11.4%

Question: Which Potency does the source give for Fc1ccc(C2c3[nH]c4ccccc4c3CCN2Cc2cccn2-c2ncccn2)cc1 (stereo not drawn) here?
Answer: inconclusive: 14.1 µM [inhibitor, single point]

Question: For COC(=O)C(=C/C(C)=C/c1cccnc1)C(=O)OC, which Potency is on record?
Answer: inconclusive: 17.8 µM [inhibitor, single point]

Question: With Cc1ccc(N2CCN(C(=O)CCc3c(C)nc4ncnn4c3C)CC2)c(C)c1 as the compound, how does the Potency read?
Answer: inconclusive: 35.5 µM [inhibitor, single point]

Question: For COc1ccc(N(CC(=O)NC2CCCC2)C(=O)Cn2nnc(-c3ccc(OC)c(OC)c3)n2)cc1, which Potency is on record?
Answer: inconclusive: 7.08 µM [inhibitor, full curve, poor fit]

Question: With Cc1ccc(CNc2ncnc3c2cnn3C2CCCCO2)cc1 (stereo not drawn) as the compound, how does the “activity, negative = inhibition” value read?
Answer: inactive: -0.0452%

Question: For O=C1NC[C@@H](Cc2cccc3ccccc23)N(CCCCC2CCCCC2)C1=O, which Potency is on record?
Answer: inconclusive: 25.1 µM [inhibitor, single point]

Question: For COc1ccc(C(CC(=O)Nc2ccc(F)cc2)c2ccccc2)cc1 (stereo not drawn), which Potency is on record?
Answer: inconclusive: 0.708 µM [inhibitor, full curve, poor fit]

Question: With Cc1ccc(C)c(CN2C(=O)c3ccccc3Sc3ccc(C(=O)NC4CCCC4)cc32)c1 as the compound, how does the Potency read?
Answer: inconclusive: 5.01 µM [inhibitor, full curve]

Question: Which “activity, negative = inhibition” value does the source give for Cc1cc(C(=O)Nc2ncn(Cc3ccc(F)cc3)n2)ccc1[N+](=O)[O-] here?
Answer: inactive: -8.78%

Question: Which “activity, negative = inhibition” value does the source give for N/C(=N\OC(=O)c1ccc(Cl)cc1)c1ccc(Cl)cc1 here?
Answer: inactive: 20.4%

Question: Which Potency does the source give for CC(C)C(N)c1csc(Nc2ccc(C(=O)c3ccccc3)cc2)n1 (stereo not drawn) here?
Answer: inconclusive: 35.5 µM [inhibitor, single point]

Question: For OCCCNc1ncnc2c1ncn2[C@H]1CN(Cc2ccc(-c3ccccc3)cc2)C[C@@H](CO)O1, which “activity, negative = inhibition” value is on record?
Answer: inactive: -14.2%

Question: With COc1ccc(CCN(C)C(=O)C2CCCN(C3CCN(Cc4ccccc4)CC3)C2)cc1OC (stereo not drawn) as the compound, how does the “activity, negative = inhibition” value read?
Answer: inactive: -29.2%

Question: For O=NN(Cc1cccnc1)C(=O)NC1CCCCC1, which “activity, negative = inhibition” value is on record?
Answer: inactive: 3.22%

Question: Which “activity, negative = inhibition” value does the source give for Cc1cc(C)n(CC(=O)NNC(=O)CC(C)c2ccccc2)n1 (stereo not drawn) here?
Answer: inactive: -6.29%

Question: Which Potency does the source give for O=C(Nc1ccc(Cl)cc1)Nc1csc([N+](=O)[O-])c1 here?
Answer: active: 3.98 µM

Question: For CCN(CC)c1ccc(/C=N\NC(N)=O)cc1, which Potency is on record?
Answer: inconclusive: 6.31 µM [inhibitor, single point]

Question: With CCN(CC)S(=O)(=O)c1ccc2c(c1)N(CC(=O)NCC1CCCO1)C(=O)CO2 (stereo not drawn) as the compound, how does the “activity, negative = inhibition” value read?
Answer: inactive: -0.167%

Question: For COc1ccc(C(=O)c2sc3nc(C)cc(-c4cccs4)c3c2N)cc1, which “activity, negative = inhibition” value is on record?
Answer: inactive: 44.6%

Question: Which “activity, negative = inhibition” value does the source give for O=C(Cn1c(=O)n(Cc2ccc(F)cc2)c(=O)c2sc3ccccc3c21)NCc1ccccc1Cl here?
Answer: inactive: 5.17%

Question: With CN1Cc2c(N3CCOCC3)nc3sc(C(=O)c4ccc(Br)cc4)c(N)c3c2CC1(C)C as the compound, how does the Potency read?
Answer: inconclusive: 20 µM [inhibitor, partial curve, poor fit]

Question: With COc1ccc(N2CCN(C(CNS(=O)(=O)c3c(C)cc(C)cc3C)c3ccco3)CC2)cc1 (stereo not drawn) as the compound, how does the “activity, negative = inhibition” value read?
Answer: inactive: -18.3%

Question: For Cc1ccn2c(Nc3ccc4c(c3)OCO4)c(-c3ccco3)nc2c1, which Potency is on record?
Answer: inconclusive: 28.2 µM [inhibitor, single point]

Question: For N#Cc1ccccc1CSc1nnc(-c2ccccc2)o1, which “activity, negative = inhibition” value is on record?
Answer: inactive: 3.77%

Question: Which Potency does the source give for O=C(Nc1ccccc1-c1ccccc1)c1cc(C(F)(F)F)cc(C(F)(F)F)c1 here?
Answer: inconclusive: 2.82 µM [inhibitor, partial curve, poor fit]

Question: Which “activity, negative = inhibition” value does the source give for CCc1cccc(NC(=O)COC(=O)c2c(C)nn(-c3ccccc3)c2C)c1 here?
Answer: inactive: 9.86%

Question: Which Potency does the source give for CCOC(=O)C1=C(Cc2ccc(Cl)cc2)C(=O)c2ccccc2C1=O here?
Answer: inconclusive: 1.58 µM [inhibitor, full curve]

Question: For CCCn1c2ccccc2c2cnn(CC(=O)N(CCCOC(C)C)Cc3ccco3)c(=O)c21, which Potency is on record?
Answer: inconclusive: 35.5 µM [inhibitor, single point]

Question: With Cc1ccc2c(c1)N(CC(=O)N1CCCc3ccccc31)C(=O)CO2 as the compound, how does the Potency read?
Answer: inconclusive: 3.55 µM [inhibitor, partial curve, poor fit]

Question: Which Potency does the source give for O=C(Nc1ccc(-c2nc3ncccc3o2)cc1)c1ccc([N+](=O)[O-])o1 here?
Answer: inconclusive: 3.98 µM [inhibitor, partial curve, poor fit]

Question: With COC(=O)c1cc(NC(=O)Cn2ncc3c2-c2ccccc2OC3)cc(C(=O)OC)c1 as the compound, how does the “activity, negative = inhibition” value read?
Answer: inactive: -22.6%

Question: With COc1ccc(NS(=O)(=O)c2cccc(C(=O)N(C)Cc3ccc(SC)cc3)c2)cc1 as the compound, how does the Potency read?
Answer: inconclusive: 35.5 µM [inhibitor, single point]

Question: For COc1cccc(CN2CCN(C3CCN(c4cccc(C)c4C)CC3)CC2CCO)c1 (stereo not drawn), which Potency is on record?
Answer: inconclusive: 17.8 µM [inhibitor, single point]

Question: Which Potency does the source give for COc1cccc2sc(N(CCCN(C)C)C(=O)c3ccc(S(=O)(=O)N4CCCc5ccccc54)cc3)nc12 here?
Answer: inconclusive: 35.5 µM [inhibitor, single point]

Question: With Cc1cccc(CS(=O)(=O)CC2Nc3ccc(C(=O)NCc4ccccc4Cl)cc3NC2=O)c1 (stereo not drawn) as the compound, how does the Potency read?
Answer: inconclusive: 3.98 µM [inhibitor, partial curve, poor fit]

Question: With CCN(C(=O)COC(=O)CC1CCCCC1)c1c(N)n(Cc2ccccc2)c(=O)[nH]c1=O as the compound, how does the “activity, negative = inhibition” value read?
Answer: inactive: -6.48%

Question: Which Potency does the source give for Cc1ccc(NC(=O)Cn2cc(C(F)(F)F)cc(Cl)c2=O)cc1S(=O)(=O)N1CCCCC1 here?
Answer: inconclusive: 1.12 µM [inhibitor, full curve, poor fit]

Question: With O=C(NCCc1c[nH]c2ccccc12)Nc1ccccc1C(F)(F)F as the compound, how does the “activity, negative = inhibition” value read?
Answer: inactive: -15.8%

Question: Which Potency does the source give for O=C(CSc1ncnc2ccccc12)c1ccco1 here?
Answer: inconclusive: 7.94 µM [inhibitor, partial curve]

Question: For COc1ccc(OC)c(/C=C/C(=O)N2CCN(S(=O)(=O)c3ccc(C)cc3C)CC2)c1, which Potency is on record?
Answer: inconclusive: 7.94 µM [inhibitor, partial curve, poor fit]

Question: With CCOc1ccc(C2c3[nH]c4ccccc4c3C[C@H]3C(=O)N(C4CCN(Cc5ccccc5)CC4)CC(=O)N23)cc1OC (stereo partly drawn) as the compound, how does the Potency read?
Answer: inconclusive: 15.8 µM [inhibitor, single point]

Question: For COc1ccc(C(C)=O)cc1Cn1c(C)c(C(=O)NCc2ccc(C(C)C)cc2)sc1=O, which Potency is on record?
Answer: inconclusive: 12.6 µM [inhibitor, partial curve, poor fit]

Question: Which “activity, negative = inhibition” value does the source give for Cc1cc(=O)oc2cc(NC(=O)c3ccccc3Cl)ccc12 here?
Answer: inactive: -1.3%

Question: With COc1ccc(C2Nc3cccc(O)c3C(=O)N2Cc2ccccc2)cc1COc1ccc(NC(C)=O)cc1 (stereo not drawn) as the compound, how does the “activity, negative = inhibition” value read?
Answer: inactive: -4.67%

Question: Which Potency does the source give for CCCCC/C=C/C1=CC(=O)C[C@H](c2ccc3c(c2)OCO3)C1 here?
Answer: inconclusive: 11.2 µM [inhibitor, partial curve, poor fit]

Question: Which Potency does the source give for Cc1cc(Cl)c(S(=O)(=O)N2CCCC2)cc1OCC(=O)NC1CCCCC1 here?
Answer: inconclusive: 17.8 µM [inhibitor, partial curve, poor fit]

Question: Which “activity, negative = inhibition” value does the source give for COc1ccc(/C=N/n2cnc3c([nH]c4ccc(F)cc43)c2=O)cc1CSc1ccccn1 here?
Answer: inactive: -24.1%

Question: Which Potency does the source give for CCC(c1nnnn1-c1c(C)cccc1C)N1CCN(C/C=C/c2ccccc2)CC1 (stereo not drawn) here?
Answer: inconclusive: 12.6 µM [inhibitor, partial curve, poor fit]

Question: For Cc1ccc(S(=O)(=O)N2CCC(C(=O)OC(C)C(=O)N(C)c3ccccc3)CC2)cc1C (stereo not drawn), which “activity, negative = inhibition” value is on record?
Answer: inactive: -16.2%

Question: For Cc1ccc(-c2nc(CS(=O)(=O)CC(=O)NC3CC3)c(C)o2)cc1, which Potency is on record?
Answer: inconclusive: 15.8 µM [inhibitor, single point]

Question: Which “activity, negative = inhibition” value does the source give for CCCNC(=O)c1cc(C2CCCCN2C(=O)c2ccccc2)on1 (stereo not drawn) here?
Answer: inactive: 12.4%

Question: For CN1C(=O)CSc2ccc(NC(=O)Nc3ccccn3)cc21, which Potency is on record?
Answer: inconclusive: 8.91 µM [inhibitor, partial curve]

Question: Which “activity, negative = inhibition” value does the source give for Cc1ccc[n+](Cc2ccc([N+](=O)[O-])cc2)c1 here?
Answer: inactive: 20.8%

Question: For Cc1ccc(S(=O)(=O)OCC(=O)Nc2ccc(C(=O)O)c(O)c2)cc1, which Potency is on record?
Answer: inconclusive: 0.447 µM [inhibitor, full curve, poor fit]

Question: Which “activity, negative = inhibition” value does the source give for Cc1cc(-c2nc3ncccc3o2)ccc1NC(=O)COc1ccc(C(C)(C)C)cc1 here?
Answer: inactive: 1.36%

Question: Which Potency does the source give for C[C@H](O)[C@@H]1C(=O)N2CCc3c([nH]c4ccccc34)[C@@H]2C[C@@H]1N(C)C(=O)Nc1cc(Cl)cc(Cl)c1 here?
Answer: inconclusive: 35.5 µM [inhibitor, single point]

Question: For CCN(CC)c1ccc2nc3ccc(N)cc3[n+](-c3ccccc3)c2c1, which Potency is on record?
Answer: inconclusive: 3.98 µM [inhibitor, partial curve, poor fit]

Question: For FC(F)(F)c1cccc(N2CCN(C(=S)NC3CCCC3)CC2)c1, which Potency is on record?
Answer: inconclusive: 35.5 µM [inhibitor, single point]

Question: Which “activity, negative = inhibition” value does the source give for O=C(NC(=O)N1CCCCC1)c1ccccc1 here?
Answer: inactive: 0%

Question: With [O-]/C(=C(\C(=S)Nc1ccc(SC(F)F)cc1)[n+]1ccccc1)c1ccc(Cl)cc1Cl as the compound, how does the “activity, negative = inhibition” value read?
Answer: inactive: -28.8%

Question: With C[C@H]1CN([C@@H](C)CO)C(=O)c2c(c3ccccc3n2C)-c2ccccc2CO[C@H]1CN(C)Cc1cccc(F)c1 as the compound, how does the Potency read?
Answer: inconclusive: 20 µM [inhibitor, single point]
